Data: the BET-seq Pho4 binding data (Le et al. 2018)
The list shows a part of the results. These are noisy estimates, calculated here from bound and input reads.

target: T1, Pho4 (S. cerevisiae) (UniProt P07270); assay: relative binding free energy (BET-seq); higher = weaker binding; conditions: reference: library average
T1 sequence: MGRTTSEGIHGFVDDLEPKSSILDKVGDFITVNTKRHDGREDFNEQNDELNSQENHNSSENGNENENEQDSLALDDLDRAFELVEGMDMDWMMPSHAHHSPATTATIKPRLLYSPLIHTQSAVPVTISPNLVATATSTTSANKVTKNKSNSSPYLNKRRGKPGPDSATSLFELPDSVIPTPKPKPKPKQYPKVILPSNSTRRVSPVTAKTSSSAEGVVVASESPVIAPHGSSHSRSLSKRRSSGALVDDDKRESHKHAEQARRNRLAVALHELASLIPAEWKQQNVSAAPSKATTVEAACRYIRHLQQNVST

Row | Sequence | relative binding free energy [kcal/mol]
1 | AATGGCACGTGTGTGC | -0.13
2 | AGGTTCACGTGTAAGG | 0.32
3 | AGGGACACGTGTCTAG | 0.02
4 | CTAAGCACGTGTGATG | 0.01
5 | ATGGACACGTGGGCTT | -0.1
6 | GTGGACACGTGCGTGA | 0.07
7 | CGTCGCACGTGTTAGG | -0.06
8 | AGTTGCACGTGGAGAA | -0.02
9 | TTTTGCACGTGTCATA | -0.14
10 | AGTTTCACGTGAATGC | 0.29
11 | TATGTCACGTGATTAT | 0.16
12 | CTATACACGTGTGTGA | 0.11
13 | TCGATCACGTGTTAGG | 0.04
14 | TGGTGCACGTGTTATA | -0.01
15 | TTTTACACGTGAGAAA | 0.37
16 | TGCTTCACGTGATTAT | 0.29
17 | TAAGTCACGTGAGGTT | 0.37
18 | GTCAGCACGTGATGTG | 0.16
19 | TCGGGCACGTGGTGGT | -0.1
20 | TGGGTCACGTGGGGAA | -0.02
21 | TATTGCACGTGGCTGG | -0.13
22 | AGGAGCACGTGGTGCG | -0.09
23 | ATATACACGTGTTTTG | 0.01

Row | Sequence | relative binding free energy [kcal/mol]
24 | GTTTTCACGTGGAGGA | 0.28
25 | GTTGGCACGTGCTGTT | -0.13
26 | TTTTACACGTGTAATA | 0.27
27 | TGTGCCACGTGAGTTG | 0.16
28 | GCTGACACGTGTGTGG | 0.04
29 | GCGTGCACGTGATTGT | 0.03
30 | AGGTACACGTGTTAAA | 0.08
31 | TGGGTCACGTGTGTAT | 0.13
32 | GATGGCACGTGTTTGT | -0.02
33 | AATGGCACGTGCTGGT | -0.22
34 | ATTGGCACGTGGACTT | -0.09
35 | CTTGGCACGTGTAGTT | -0.03
36 | ATTAACACGTGTGGTG | -0.01
37 | CTAGGCACGTGAGAAT | 0.44
38 | AAGGACACGTGGCGTG | -0.1
39 | AGCGCCACGTGAGGGT | 0.13
40 | CATGACACGTGGTGGT | -0.08
41 | GTCTGCACGTGTGAAT | 0.14
42 | TGGCGCACGTGTCAGT | 0.11
43 | TCTGACACGTGCTGGG | 0.03
44 | GTAAGCACGTGATCGG | 0.02
45 | TTTGCCACGTGGGCAT | -0.2
46 | AATTACACGTGATTTA | 0.16

Row | Sequence | relative binding free energy [kcal/mol]
47 | GGGAGCACGTGCTTAT | -0.06
48 | ACGTTCACGTGGTGGA | 0.11
49 | TATTACACGTGGATGT | 0.15
50 | TCATTCACGTGTGGTT | 0.22
51 | TATGTCACGTGGCTCT | 0.06
52 | ATTAACACGTGGGGTT | -0.09
53 | TACGGCACGTGCTGGT | -0.17
54 | TATGTCACGTGGAGAT | 0.08
55 | GGGTGCACGTGACCGT | 0.11
56 | GGGCCCACGTGGGGGG | -0.3
57 | AGGTGCACGTGGTCGT | -0.13
58 | ATTCGCACGTGTGAGT | 0.11
59 | AGGGTCACGTGGACGG | 0.13
60 | CATTTCACGTGTGGAG | 0.29
61 | TTTAGCACGTGTTGTG | -0.09
62 | AAAATCACGTGGAGTT | 0.16
63 | TTGTGCACGTGGGGAG | -0.15
64 | TTACGCACGTGGGGGA | -0.23
65 | GGGCACACGTGGATGA | 0.15
66 | ATCTTCACGTGTTGAT | 0.18
67 | GGTGCCACGTGAGGTA | 0.2
68 | AGTGACACGTGTCTTG | -0.05
69 | ACCGGCACGTGCGGGG | -0.19

Row | Sequence | relative binding free energy [kcal/mol]
70 | TGTGGCACGTGTGGGC | 0.01
71 | GTAGGCACGTGAGATA | 0.23
72 | TAGGGCACGTGATGAA | -0.04
73 | TACTGCACGTGGTGTC | -0.05
74 | TTAGGCACGTGCTTTT | -0.19
75 | TTTGTCACGTGGGCCG | -0.17
76 | GGCTGCACGTGCATGG | 0.02
77 | GTGGGCACGTGTGTGA | -0.04
78 | GATCTCACGTGCGTGT | 0.22
79 | GAATTCACGTGCAGGG | 0.33
80 | TTATTCACGTGGGTCA | 0.09
81 | TGCGGCACGTGAGGCT | 0.12
82 | ATATTCACGTGGGGAC | 0.06
83 | CGGATCACGTGGTTTA | 0.17
84 | AGGGTCACGTGTGATC | 0.36
85 | ATGAGCACGTGTTCGT | -0.16
86 | TTTAACACGTGATGCT | 0.01
87 | CGGCTCACGTGTGTTG | 0.21
88 | GGCGGCACGTGGTGTG | -0.16
89 | TCTGTCACGTGAGGCT | 0.21
90 | TGGGGCACGTGAAAAA | 0.14
91 | CGTGGCACGTGTTTTT | -0.06
92 | CTCAGCACGTGGGTGG | -0.27

Row | Sequence | relative binding free energy [kcal/mol]
93 | TGTCACACGTGGGTCA | -0.05
94 | CGGGCCACGTGAAGTG | 0.25
95 | TGGTCCACGTGAGATT | 0.41
96 | AATGCCACGTGCGGGG | -0.1
97 | CAGGTCACGTGTTAAG | 0.17
98 | TAGGGCACGTGACGGG | -0.02
99 | TTGTGCACGTGTGCTA | -0.02
100 | TTTTGCACGTGAGGGA | 0.28
101 | TAATTCACGTGAAAAG | 0.43
102 | TCGGTCACGTGACTTG | 0.37
103 | CCCGGCACGTGGGTGG | -0.22
104 | GAAAGCACGTGAAGGA | 0.5
105 | AGGCGCACGTGTTCGG | -0.1
106 | CTTTTCACGTGTAGCT | 0.2
107 | TTAGGCACGTGATGGT | 0.07
108 | TAGGACACGTGTAATA | 0.19
109 | TTTTACACGTGACATA | 0.23
110 | TGTTGCACGTGAGGGA | 0.19
111 | TTGGGCACGTGTGGTA | -0.05
112 | GTTGGCACGTGGTCTG | -0.16
113 | TTGCTCACGTGCGGGT | 0.28
114 | TAGAACACGTGTTTGA | -0.08
115 | AACGGCACGTGTGGGA | -0.04
